In PubChem BioAssay AID1468 (National Center for Advancing Translational Sciences (NCATS), 2008):
Among all 280,000 compounds or so, about 1,100 (0.39%) were called active. The inconclusive results got no clear call from the source; some entries with a clear call stand among them for comparison. Calls follow the shape of the dose curve; as a rule, active = well fitted inhibition curve with a large enough effect; inconclusive = small, poorly fitted or top-dose-only effect, or effect the other way; inactive = flat fitted curve, though single readings scatter. No potency is given beside an inconclusive call; the fits are too rough.

Biological target: Microtubule-associated protein tau (Homo sapiens) (UniProt P10636)
Chain of UniProt P10636 (P10636 whole entry, looked up): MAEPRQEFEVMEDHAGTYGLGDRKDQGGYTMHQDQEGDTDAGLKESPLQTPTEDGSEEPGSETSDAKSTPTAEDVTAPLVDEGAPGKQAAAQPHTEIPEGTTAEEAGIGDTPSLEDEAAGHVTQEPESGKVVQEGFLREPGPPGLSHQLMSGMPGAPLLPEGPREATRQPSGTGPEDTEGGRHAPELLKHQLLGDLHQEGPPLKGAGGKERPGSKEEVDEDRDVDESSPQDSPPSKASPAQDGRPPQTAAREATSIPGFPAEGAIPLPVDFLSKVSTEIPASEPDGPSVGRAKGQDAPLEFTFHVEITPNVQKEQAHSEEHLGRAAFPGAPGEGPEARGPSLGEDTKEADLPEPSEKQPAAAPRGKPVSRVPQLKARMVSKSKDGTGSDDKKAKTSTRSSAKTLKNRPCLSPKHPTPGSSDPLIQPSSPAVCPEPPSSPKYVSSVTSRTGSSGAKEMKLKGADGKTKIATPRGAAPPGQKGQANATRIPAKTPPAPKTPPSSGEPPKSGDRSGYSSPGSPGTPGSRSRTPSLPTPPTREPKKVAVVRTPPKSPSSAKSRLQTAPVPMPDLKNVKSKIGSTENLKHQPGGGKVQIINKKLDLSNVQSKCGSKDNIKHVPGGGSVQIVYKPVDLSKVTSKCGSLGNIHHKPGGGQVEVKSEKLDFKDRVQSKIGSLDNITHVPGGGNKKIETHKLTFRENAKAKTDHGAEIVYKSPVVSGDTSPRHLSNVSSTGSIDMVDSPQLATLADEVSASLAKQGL
Assay: qHTS for Inhibitors of Tau Fibril Formation, Fluorescence Polarization; also: nearly all actives have a fitted effect of over 55% in size
Conditions: K18 P301L tau heparin fibrillization, Alexa594 FP, 6 h; series mostly up to 57.7 µM
How it was run: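 Steps: dispense K18 P301L tau (15 uM plus 0.24 uM Alexa 594 tracer, final) in pH 7 sodium acetate; add compound; add heparin (20 uM final); incubate 6 hr, 37 C; add ThT (30 uM final); after 1 hr ambient, read FP.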
Potency is read from the fitted curve at half-maximal effect; tags tell the direction and shape of the fitted curve.

Which Potency does the source give for COc1ccc(-c2c(C#N)c(N)nc3c2CCc2ccccc2-3)cc1OC here?
The Potency was inconclusive [inhibitor, partial curve].

Which Potency does the source give for O=c1[nH]c2cc3c(cc2cc1CN(Cc1nnnn1CC1CCCO1)C1CCCC1)OCO3 (configuration not stated) here?
Its Potency is “inactive”.

For O=c1[nH][nH]c(=S)n1C1CCCCC1, which Potency is on record?
The Potency was inconclusive [inhibitor, partial curve].

COc1ccc(C2=C(C)C(=O)N(Cc3ccc(C(=O)Nc4cccc(F)c4)cc3)S2(=O)=O)cc1 was tested. Which Potency did it give?
The Potency was inconclusive [inhibitor, partial curve].

How did the Potency turn out when COCCNC(=O)/C(C#N)=C/c1ccc(N2CCOCC2)o1 was run?
Its Potency is “inactive”.

With Cc1ccc(F)cc1NC(=O)Cn1c(=O)nc(-c2ccccc2F)c2cc(Cl)ccc21 as the compound, how does the Potency read?
Its Potency is “inactive”.

How did the Potency turn out when COc1ccc(NC(=O)c2cc3cccc(OC)c3oc2=Nc2ccc(C(=O)O)cc2)cc1OC was run?
Its Potency is inconclusive [inhibitor, single point].

Which Potency does the source give for CCOC(=O)C1(CCc2ccccc2)CCN(C(=O)C2=C(C)OCCO2)CC1 here?
Its Potency is inconclusive [inhibitor, single point].

How did the Potency turn out when COc1cc(NC(=O)N2CCN(c3cc(-c4noc(C)n4)ccc3C)CC2)cc(OC)c1OC was run?
The Potency was inconclusive [activator, single point].

For CSc1cccc(NC(=O)/C=C/c2cccc(Cl)c2)c1, which Potency is on record?
Its Potency is inconclusive [inhibitor, partial curve].

Which Potency does the source give for Cn1c(=N)n(CC(=O)c2ccc(Br)s2)c2ccccc21 here?
Its Potency is inconclusive [activator, partial curve].

Which Potency does the source give for O=C(CSc1ccc(Cl)cc1)Nc1ccc(-c2nc3ccccc3[nH]2)cc1 here?
Its Potency is inconclusive [inhibitor, single point].

With CCOC(=O)CN(C(=O)CSc1nnc2c(n1)[nH]c1ccc(OC)cc12)c1ccc(F)cc1 as the compound, how does the Potency read?
The Potency was inconclusive [inhibitor, single point].

For O=C(Nc1cccnc1)Nc1ccc(Cl)cc1Cl, which Potency is on record?
Its Potency is inconclusive [inhibitor, partial curve].

Which Potency does the source give for CC(=O)Nc1cccc(C(=O)OCc2ccc(C(=O)Oc3ccc(Cl)cc3)cc2)c1 here?
The Potency was inconclusive [inhibitor, partial curve].

With COC(=O)c1ccc(OCC(=O)c2ccc(O)cc2O)cc1 as the compound, how does the Potency read?
The Potency was “inactive”.

How did the Potency turn out when N#CC1=C2SCN(Cc3ccco3)CN2C(=O)CC1c1ccccc1F (configuration not stated) was run?
The Potency was inconclusive [inhibitor, partial curve].

How did the Potency turn out when COCCCNC(=S)NCCc1ccc(F)cc1 was run?
Its Potency is “inactive”.

Which Potency does the source give for O=C1C2=CC[C@H]3C(=O)N(Cc4ccc5c(c4)OCO5)C(=O)[C@@H]3[C@@H]2[C@H](O)[C@@H]2O[C@H]12 here?
The Potency was inconclusive [inhibitor, partial curve].

How did the Potency turn out when CCS(=O)(=O)c1ccc2oc(Nc3cccc(OC)c3)nc2c1 was run?
Its Potency is inconclusive [activator, single point].

How did the Potency turn out when CCCCCC[N+](C)(C)CCSSCC[N+](C)(C)CCCCCC was run?
Its Potency is inconclusive [inhibitor, partial curve].

How did the Potency turn out when Nc1ccc(S(=O)(=O)Nc2nccc(/C=C/c3ccc(Br)s3)n2)cc1 was run?
The Potency was inconclusive [inhibitor, single point].

Which Potency does the source give for O=[N+]([O-])c1ccc(Nc2c3ccccc3nc3ccccc23)cc1 here?
The Potency was inconclusive [inhibitor, single point].

CN(CC(O)CON=C1c2ccccc2-c2ccccc21)S(=O)(=O)c1ccc(Br)cc1 (configuration not stated) was tested. Which Potency did it give?
The Potency was inconclusive [inhibitor, partial curve].

For CCOc1ccccc1Nc1nc(-c2sc(NC(=O)c3ccc([N+](=O)[O-])cc3)nc2C)cs1, which Potency is on record?
Its Potency is inconclusive [activator, full curve, poor fit].

Which Potency does the source give for C(=N\Nc1nc2ccccc2s1)/c1ccco1 here?
Its Potency is inconclusive [activator, partial curve, poor fit].

For Cn1ncc(S(=O)(=O)Cc2ccccc2)c(Cl)c1=O, which Potency is on record?
Its Potency is inconclusive [inhibitor, single point].

For CCCCOc1ccc(CNC(=O)c2ccc(NC(=O)N3CCSc4ncccc43)cc2)cc1, which Potency is on record?
The Potency was “inactive”.

With Cc1ccc(C)c(CN2C(=O)c3ccccc3S(=O)c3ccc(C(=O)N(C)Cc4ccccc4)cc32)c1 (configuration not stated) as the compound, how does the Potency read?
Its Potency is inconclusive [inhibitor, single point].

COc1ccc(C2CC(c3ccccc3)n3nnnc3N2)cc1 (configuration not stated) was tested. Which Potency did it give?
Its Potency is “inactive”.

O=C1C2CC=CCC2C(=O)N1c1n[nH]c(CCc2ccccc2)n1 (configuration not stated) was tested. Which Potency did it give?
The Potency was inconclusive [activator, single point].

With CC(=O)OC1=Cc2c(ccc3ccc(=O)oc23)OC1(C)C as the compound, how does the Potency read?
Its Potency is “inactive”.

With CCC(C)[C@@H](NC(=O)OC(C)(C)C)c1nnc(S(=O)(=O)Cc2cccc(C)c2)o1 (some centres not stated) as the compound, how does the Potency read?
The Potency was “inactive”.

Which Potency does the source give for Cc1ccc(S(=O)(=O)N2CCC(=O)N(CCOCc3ccc(C(F)(F)F)cc3)CC2)cc1 here?
The Potency was inconclusive [activator, single point].

How did the Potency turn out when O=C(COC(=O)/C=C/c1ccc(OC(F)F)cc1)Nc1ccc(S(=O)(=O)N2CCCC2)cc1 was run?
The Potency was inconclusive [inhibitor, single point].

Which Potency does the source give for CCN(CC)c1ccc(CNc2nc3ccccc3n2CC)cc1 here?
The Potency was “inactive”.

For Cc1ccc(C(=O)Nc2ccc3oc(-c4cccnc4)nc3c2)c(Cl)c1, which Potency is on record?
Its Potency is inconclusive [inhibitor, partial curve, poor fit].

How did the Potency turn out when COc1ccc(C(c2c[nH]c3ccccc23)c2c[nH]c3ccccc23)cc1O was run?
Its Potency is inconclusive [activator, partial curve, poor fit].

For Cc1ccc(C(=O)COC(=O)CNC(=O)Cc2ccccc2)cc1[N+](=O)[O-], which Potency is on record?
The Potency was inconclusive [inhibitor, single point].

With Cn1cc(Br)c(C(=O)NNC(=O)c2cccc(Br)c2)n1 as the compound, how does the Potency read?
Its Potency is “inactive”.

Which Potency does the source give for Cc1cccc(N2CCN(C(=O)CCS(=O)(=O)c3ccc(Br)cc3)CC2C)c1 (configuration not stated) here?
Its Potency is inconclusive [activator, single point].

Cc1ccc(-n2nnc(C(=O)Nc3cc(F)ccc3F)c2C)cc1F was tested. Which Potency did it give?
Its Potency is “inactive”.
